The values that follow come from the RNAGym collection of RNA variant scans (doi:10.7554/elife.90254).

Sequences and labels used below:
B1: OR4K15 (parent)
chain: GUUAACGGUCAUAGGCCAUGGAAACUAGGAGCACCAUUUCGCUGCCAGUGAAGAAAUGAACAAAGAAAAUCUGGGCCAGGCAGGCAUCAAAAGAAAUAGUCUUGCGCUCAACCAGAAAGUCUGUAAUCAUUUUAAGGGUA

Read counts are not given, so values of variants with three or more changes are uncertain.

Variants of B1 are the subject of this series. The series can be described thus: self-cleavage, relative activity (ratio to wild type); higher = more cleavage; in vitro, sequencing; the parent is a self-cleaving ribozyme.
In the case of A67G A90U U103C, the self-cleavage stood at 0.52.
The same measure for A60G A68G U131C G137A: 0.66; for A62G A82G U102C: 0.83.
As for A63G G83A A135U, the self-cleavage is 1.78.
Consider A64G A118G A135G U139A, for which the self-cleavage was determined as 0.24.
With A60G C112U A114G, the self-cleavage was 0.01.
Turning to A60U A111G A126G, the self-cleavage worked out at 0.01.
A64G U108C A117G: the self-cleavage came to 0.01.
The same measure for A62G A82U U102C A125G: 0.08; for A62G A78U U131C: 0.09; for A60G A86G A96G: 0.65.
With A62G A67G A96G, the self-cleavage stood at 1.59.
The same measure for A60G U103C U133A: 0.74.
On to A60G G99U A110U, for which the self-cleavage turned out to be 0.29.
For the variant A66G A91G A94G, the self-cleavage worked out at 1.6.
The same measure for A62G A92G U108C: 0; for A62G A94G A129G: 1.69.
On to A60G A111G U120C, for which the self-cleavage was determined as 0.01.
Consider A60G A96G A126G U132C, for which the self-cleavage was 0.09.
As for A66G G75U C121U, the self-cleavage is 0.2.
Turning to A62G A68G U108A U130C, the self-cleavage is 0.01.
In the case of A60G A90G U120C, the self-cleavage is 0.87.
Consider A67G A69G U97C, for which the self-cleavage came out at 1.04.
As to A63G A95C A116G, the self-cleavage is 0.2.
As to A62U A68G U100C, the self-cleavage stood at 1.57.
In the case of A60G A89U A116G U120C U130C G137A, the self-cleavage stood at 0.2.
Turning to A66U A86G U124G, the self-cleavage was found to be 0.48.
With A66G A68G A140G, the self-cleavage came to 1.08.
As for A63G U103C U124C, the self-cleavage was found to be 0.87.
With A63G U72C A110G, the self-cleavage was 0.04.
As for C61U A63C U97C, the self-cleavage was 1.85.
For the variant A60U A63G A78U A111G U122C U127A, the self-cleavage worked out at 0.
For the variant A67G A68G A86G U87A U122C, the self-cleavage is 0.9.
With A67C A86G U130C A135C, the self-cleavage was found to be 2.32.
The same measure for A62G A68G G79A U132A: 0.12; for A62G C81U A114U U127C: 0.03; for A64G A125G U127C U132C: 0.06.
For the variant A63G A64C U97C, the self-cleavage was found to be 1.06.
Take A63G A67G A94U: the self-cleavage turned out to be 1.31.
Turning to A66U A68U U87C, the self-cleavage was 1.23.
For the variant A64G A67G U72C A90G, the self-cleavage stood at 0.16.
A60G A63G C81U A94U: the self-cleavage amounted to 0.77.
As for A63C U120C A140U, the figure is 0.95; as for A64G A69G U87C U122C U127A, 1.22; as for A63G U122C A126G, 0.24.
As to A66U A69G A116U, the self-cleavage turned out to be 0.13.
As to A66G A68G U102C, the self-cleavage came out at 1.67.
The same measure for A60G A96G U120C: 0.2; for A60G A96G U139C: 1.96; for A63C A96G A98G: 0.73.
For the variant A62G A91G A125C, the self-cleavage came to 1.13.
Take A66G A78G A135C: the self-cleavage amounted to 0.06.
A60G U100C A134U: the self-cleavage is 2.43.
The same measure for A66G A96G U108C A111U A125G: 0.
A66G A69G A91C: the self-cleavage was found to be 1.36.
The same measure for A64G A91G A95G: 2.53.
Turning to A64C A86G A129G U131C, the self-cleavage came out at 0.87.
For A62G A118C U132C, the self-cleavage came to 0.07.
The same measure for A63U A96G U108C A117G: 0; for A63U A78U A117G U130C: 0.21; for A63G A86G A91G A126G: 0.03.
On to A67G A91G U97A, for which the self-cleavage came to 0.73.
A62U A69C A95G: the self-cleavage was found to be 1.81.
Consider A63G A67G U127C, for which the self-cleavage is 1.27.
A63G U87C U100C U108G A125G U131C: the self-cleavage was determined as 0.
The same measure for A66U A95G U103C A117U: 0.51.
As for G65U A66G U72C, the figure is 0.22; as for A62C A89G A90U, 0.86; as for A63G U70C A140G, 0.74.
A60G A67G A95G A116G A129G U132C: the self-cleavage is 0.23.
As to A64G A92G A117G, the self-cleavage was 1.65.
For A64G A96G A111G U122A, the self-cleavage came out at 0.02.
Regarding A60U A67U A78G C101U U131C, the self-cleavage was determined as 0.05.
The same measure for A62C A68G A69G A92G A98G: 0.22.
Regarding A60G A67G A125G A129U, the self-cleavage came to 0.33.
With A66G G74A A89C, the self-cleavage was found to be 0.13.
A64G A95G A96C: the self-cleavage was determined as 0.17.
With G65A A129G U130A, the self-cleavage worked out at 1.07.
With A60G A98G U102A, the self-cleavage turned out to be 0.17.
On to A60G A90G A140G, for which the self-cleavage was found to be 0.53.
With A60G A126G U132C, the self-cleavage is 1.31.
Consider A62G A68G U103A A129G, for which the self-cleavage was 0.45.
The same measure for A64G A90G A96G: 0.59; for A60G G80A A117G: 0.22; for A60G A64U G83A U133C: 0.73.
A64U A91G A92G U132C: the self-cleavage was 1.05.
Regarding A60G U87A U127A, the self-cleavage was determined as 0.41.
As for A66U A90G U100A A118G, the figure is 0.11; as for A64G A92G A96G, 1.65.
On to A67G A89G A117G, for which the self-cleavage was 1.53.
As for A63G G80A G83A G137A, the figure is 0.39.
The same measure for A60G U100C U122C: 2.47; for A66G A118G U124A: 0.89; for A66G U103A U108C: 0.
With A60G A95G A134G, the self-cleavage worked out at 1.76.
Take A64G C71A A111G: the self-cleavage worked out at 0.05.
As to A62U A67G A116U U122C, the self-cleavage is 0.11.
Take A60U A64G U87C: the self-cleavage was found to be 1.35.
As for A62C U130C U133C, the self-cleavage was 1.13.
For the variant A64G A67G A110G, the self-cleavage worked out at 0.25.
Turning to A62G A69G A89G, the self-cleavage was 1.65.
Turning to A63G A66G A69U, the self-cleavage is 1.05.
Take G65A G73A A89U A90U A117G: the self-cleavage was found to be 0.06.
As for A67G A86G A140G, the self-cleavage worked out at 2.22.
With C61U A91G A126G, the self-cleavage is 0.85.
As for A62G A69G U97A, the self-cleavage came to 1.3.
Turning to A63G U70A A140G, the self-cleavage was determined as 1.37.
For A63G A91G G123U, the self-cleavage worked out at 1.07.
As for G65A A91G U102A A125G A135G, the figure is 0.13; as for A63G A68G A111U, 0.1; as for A62U A63G A118G, 0.7.
On to A60G A118G A135G, for which the self-cleavage was 1.22.
In the case of A64G A68G U122C, the self-cleavage turned out to be 1.09.
Regarding A62G A67G G115A, the self-cleavage worked out at 0.01.
With A60G A95G C105U, the self-cleavage was 0.15.
A62G A90G A126G: the self-cleavage turned out to be 0.37.
For the variant A64G U124C A126G, the self-cleavage was determined as 0.45.
Consider A62U A118G U120C A125C, for which the self-cleavage stood at 0.26.
Regarding A64U A86U U100C, the self-cleavage was determined as 0.97.
In the case of A64G A116G U122C, the self-cleavage was found to be 1.16.
Regarding A66G A78G U132A, the self-cleavage turned out to be 0.15.
With A60G U72C A78U U131A, the self-cleavage was 0.16.
As for A64G A98U A117G A129G, the self-cleavage turned out to be 1.87.
As for A66G A92G U120C, the figure is 1.47; as for A64U A69C U70C A78G U100C U124C, 0.16.
Turning to A62U U102C A135U, the self-cleavage amounted to 2.06.
On to A64U A89U A126U, for which the self-cleavage is 0.78.
On to A63G A69U A90G U102C A125G U130C, for which the self-cleavage amounted to 1.25.
As for A60G U72C U127C, the figure is 0.09.
As to A60G A64G A82G, the self-cleavage was determined as 0.47.
Regarding A63G A118U U130C, the self-cleavage was found to be 0.33.
A60G U108A U131C: the self-cleavage turned out to be 0.
With A66G A69G U100C G119A, the self-cleavage worked out at 2.39.
The same measure for A67G A82U A96U: 0.19.
A62G A69U G137A: the self-cleavage turned out to be 0.69.
As to A62G U100A A125U, the self-cleavage stood at 0.33.
As for A67G A82U C105U, the self-cleavage turned out to be 0.
Take A66U A69G A89G: the self-cleavage was found to be 0.94.
A60G G75C U108C U122A: the self-cleavage amounted to 0.01.
On to A62G U100C C105U A110G, for which the self-cleavage came to 0.05.
Take A63G A91G A92G A135U: the self-cleavage was determined as 0.68.
For A60G A94G A111C U132C, the self-cleavage is 0.01.
For A64G U122C G137A, the self-cleavage is 1.32.
Turning to A66G A68G U103C, the self-cleavage is 0.31.
With A60G A126G U131C, the self-cleavage was determined as 0.26.
As for A64G A67G A125G, the figure is 0.42; as for A62U A96G A111G, 0.01.
The same measure for A62U A91G A125G: 0.
For the variant A64U U102C A117G U120C, the self-cleavage came out at 2.29.
As for A66G A92U A117G, the figure is 2.53; as for A66G A98G U103C A118G, 0.03.
In the case of A66G U103C U108G A134G, the self-cleavage was determined as 0.01.
For the variant A66C A86G A111G, the self-cleavage amounted to 0.03.
On to A63U A69U A78G A117G, for which the self-cleavage came out at 0.22.
Turning to A67G A82C A86G, the self-cleavage is 0.19.
On to A63G A118U U132C, for which the self-cleavage was found to be 0.26.
Regarding A63G A64G A94G, the self-cleavage was 2.01.
As to A67G A82G A86G U100C U102C U103C, the self-cleavage turned out to be 2.26.
The same measure for A66G A69G A117G: 0.78; for A63G U120C U122C: 0.44.
Take A62G A95U U130A: the self-cleavage came out at 1.1.
For the variant A60G C81U A118G, the self-cleavage worked out at 0.13.
In the case of A64G A98G U103C A118G, the self-cleavage worked out at 0.03.
On to A63G A69C U120A, for which the self-cleavage was 2.45.
As to A62G A78G A114G, the self-cleavage worked out at 0.06.
Regarding A62G U72C A78C A94G, the self-cleavage worked out at 0.19.
Turning to A60G A95G A96G U122C, the self-cleavage amounted to 0.44.
